According to PubChem BioAssay AID624171 (National Center for Advancing Translational Sciences (NCATS), 2012):
In all, about 410,000 compounds went through this assay and about 1,200 (0.29%) were called active. Inconclusive means that the source gave no clear call. Such entries were picked first, then a sample of the others. The call rests on the fitted dose curve; in most records, active means well fitted activation curve with a large enough effect; inconclusive means small, poorly fitted or top-dose-only effect; inactive means flat fitted curve, though single readings scatter. Potencies beside an inconclusive call are fits to weak or partial responses and may not hold up.

Assay: qHTS of Nrf2 Activators; further: nearly all actives have a fitted effect of over 65% in size
Conditions: AREc32 ARE-luciferase reporter (MCF7-derived line), luminescence, 24 h; series mostly up to 46.1 µM
Method in brief: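 AREc32 cells carrying an ARE-driven firefly luciferase reporter were seeded at 1000 cells/well in OPTI-MEM with 5% FBS, then exposed to compound for 24 hr at 37 deg C. Luminescence was read with Steady-Glo after 30 min at RT.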
Potency means the concentration at half of the fitted maximal effect; tags describe the fitted curve by direction and shape.

Potency, inconclusive:
CC(=CC(=O)c1ccccc1)c1ccccc1 22.4 µM [activator, single point]
Cc1cccc(NC(=O)CSc2c3c(nc4ccccc24)CCC3)n1 22.4 µM [activator, single point]
CCn1nc([N+](=O)[O-])c(C(C#N)c2nc3ccccc3n2C)c(Cl)c1=O (configuration not stated) 12.6 µM [activator, partial curve]
N#CC(C#N)=Cc1cc2ccccc2nc1N1CCCCC1 28.2 µM [activator, single point]
Cc1ccc([N+](=O)[O-])cc1N/C=C/C(=O)c1ccco1 1.12 µM [activator, full curve, poor fit]
Cc1ccsc1/C=N/N=C1\C(=O)Nc2ccccc21 5.62 µM [activator, full curve]
COc1ccc(/C=N/Nc2nc(Nc3ccccc3)nc(N3CCCC3)n2)cc1[N+](=O)[O-] 22.4 µM [activator, single point]
Cc1ccc(Nc2nc(N)nc(CCl)n2)cc1 10 µM [activator, partial curve, poor fit]
CCCCC1C(=O)N(c2ccccc2)N(c2ccc(O)cc2)C1=O (configuration not stated) 6.31 µM [activator, partial curve, poor fit]
O=C(Nc1cc2c(cc1Cl)OCCCO2)c1ccco1 15.8 µM [activator, partial curve, poor fit]
COC(=O)c1sccc1NC(=O)c1ccoc1C 10 µM [activator, partial curve]
O=C(/C=C/c1ccccc1)c1ccoc1 31.6 µM [activator, single point]
COC(=O)/C=C1\N/C(=N\c2nc(C)cc(C)n2)N(c2ccc(C)c(C)c2)C1=O 17.8 µM [activator, single point]
Cc1ccc(-n2nnnc2CNC(=O)c2ccc([N+](=O)[O-])o2)cc1C 5.62 µM [activator, single point]
Oc1ccc(Cl)cc1CNc1cccc2cccnc12 12.6 µM [activator, partial curve]
Cn1nnnc1Sc1ncnc2scc(-c3ccccc3C(F)(F)F)c12 3.16 µM [activator, partial curve, poor fit]
O=C(CCS(=O)(=O)c1ccccc1)Nc1nc2c(s1)CCCC2 15.8 µM [activator, single point]
Clc1nc(Nc2ccccc2)nc(Nc2ccccc2)n1 12.6 µM [activator, single point]
Nc1ccccc1Sc1cc(Cl)nnc1Cl 11.2 µM [activator, partial curve]
CC1=NNC(=O)/C1=C\c1cn(-c2ccccc2)nc1-c1cccs1 8.91 µM [activator, partial curve]
O=[N+]([O-])c1ccc(Cl)cc1C=NNc1ccccn1 2.82 µM [activator, full curve, poor fit]
COc1cc(-c2ccc3c(=O)c4ccccc4sc3c2)cc(OC)c1OC 35.5 µM [activator, single point]
O=C(Nc1ccccc1N1CCCCC1)c1ccc([N+](=O)[O-])o1 17.8 µM [activator, partial curve, poor fit]
COC(=O)c1sccc1NC(=O)c1ccccc1Br 11.2 µM [activator, single point]
O=C(/C=C/c1cc(Br)ccc1F)Nc1cccnc1 17.8 µM [activator, single point]
Cc1nc(-c2ccccc2)sc1C(=O)Nc1ccccc1F 17.8 µM [activator, single point]
CC(=NNc1nc2ccccc2o1)c1ncccn1 5.62 µM [activator, single point]
O=C(/C=C/Nc1ccccc1F)c1cccs1 2.82 µM [activator, full curve, poor fit]
CCOC(=O)c1ccc2[nH]c3ccccc3c2c1 35.5 µM [activator, partial curve, poor fit]
C=CCS/C(N)=N\N=C\c1c(O)ccc2ccccc12 10 µM [activator, partial curve]
CSc1ncc(C(=O)Nc2cccc(Cl)c2)c(C)n1 17.8 µM [activator, single point]
CC(C)(C)c1ccc(-n2nc(C#N)c(Cl)cc2=O)cc1 5.62 µM [activator, single point]

Potency, inactive:
Cc1ccc(-c2nc3ccc(C)cn3c2Cc2ccsc2)cc1
Cn1ccnc1SCC(=O)c1cc2ccccc2o1
COc1cccc2c(=O)c(C(=O)NCCc3ccccc3)c[nH]c12
Cc1ccccc1Nc1nc2ccccc2s1
CC1C(=O)N(Cc2cn(CCC3OCCCO3)nn2)CCS(=O)(=O)N1Cc1ccc(-c2ccc(Cl)c(Cl)c2)cc1 (configuration not stated)
Cc1ccc(-c2cn3c(n2)sc2cc(C(=O)NC4CCCCC4)ccc23)cc1
C=CCN(c1ccccc1OC)S(=O)(=O)c1cccc(C(=O)OCC(=O)c2c(N)n(C)c(=O)n(C)c2=O)c1
C[C@H](CO)N1C[C@H](C)[C@@H](CN(C)CC2CCCCC2)Oc2ccc(NC(=O)Cn3cnnn3)cc2C1=O
Cc1ccc2nc(NCCc3ccc(Cl)cc3)c3nncn3c2c1
CN(c1ccc(Cl)cc1)S(=O)(=O)c1nnc(NC(=O)c2ccco2)s1
CC(C)=C1Cc2ccccc2C1=O
CCCCC(=O)Nc1ccc(C(=O)NCCc2ccccc2)cc1

Potency, active:
Cc1nc(NC(=O)/C=C/c2ccccc2)n[nH]1 7.08 µM
O=C(Nc1nc2ccccc2[nH]1)c1cccc(Cl)c1 5.01 µM
CC(=O)c1sc2nc(-c3cccs3)cc(C(F)(F)F)c2c1N 6.31 µM
